Experiment [1] deals with T1, FLAG-tagged MAGED1 (mouse) (UniProt Q9QYH6).
T1 sequence: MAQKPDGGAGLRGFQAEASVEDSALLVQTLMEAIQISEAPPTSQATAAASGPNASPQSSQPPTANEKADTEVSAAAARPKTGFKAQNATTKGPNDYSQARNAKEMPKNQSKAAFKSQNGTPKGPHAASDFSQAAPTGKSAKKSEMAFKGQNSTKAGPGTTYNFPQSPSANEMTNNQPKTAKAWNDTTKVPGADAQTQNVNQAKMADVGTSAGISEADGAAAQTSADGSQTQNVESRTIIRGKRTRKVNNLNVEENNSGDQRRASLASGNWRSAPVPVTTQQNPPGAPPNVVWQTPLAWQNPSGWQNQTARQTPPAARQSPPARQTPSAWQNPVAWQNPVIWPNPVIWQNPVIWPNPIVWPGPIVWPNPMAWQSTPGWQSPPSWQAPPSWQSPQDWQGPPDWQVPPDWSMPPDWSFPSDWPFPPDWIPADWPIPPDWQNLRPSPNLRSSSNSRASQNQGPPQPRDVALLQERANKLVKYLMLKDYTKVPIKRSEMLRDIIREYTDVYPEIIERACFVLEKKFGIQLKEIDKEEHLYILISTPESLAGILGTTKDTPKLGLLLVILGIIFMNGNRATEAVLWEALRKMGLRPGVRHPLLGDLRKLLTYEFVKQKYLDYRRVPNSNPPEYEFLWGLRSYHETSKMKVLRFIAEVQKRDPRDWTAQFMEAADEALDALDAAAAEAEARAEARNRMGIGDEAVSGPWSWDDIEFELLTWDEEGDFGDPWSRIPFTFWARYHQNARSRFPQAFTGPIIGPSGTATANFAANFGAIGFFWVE
Kind of experiment: co-IP; HEK293A cells co-transfected with FLAG-tagged MAGE proteins and Myc-tagged E3 ligases; lysates (10 mM Tris-HCl pH 8.0, 150 mM NaCl, 1 mM EDTA, 1% IGEPAL CA-630, 10% glycerol) precipitated with anti-FLAG antibody at 4°C for 2 hrs, blotted with anti-Myc.

The chains behind the UniProt entries cited, without tags or fusion partners.
UniProt O88907: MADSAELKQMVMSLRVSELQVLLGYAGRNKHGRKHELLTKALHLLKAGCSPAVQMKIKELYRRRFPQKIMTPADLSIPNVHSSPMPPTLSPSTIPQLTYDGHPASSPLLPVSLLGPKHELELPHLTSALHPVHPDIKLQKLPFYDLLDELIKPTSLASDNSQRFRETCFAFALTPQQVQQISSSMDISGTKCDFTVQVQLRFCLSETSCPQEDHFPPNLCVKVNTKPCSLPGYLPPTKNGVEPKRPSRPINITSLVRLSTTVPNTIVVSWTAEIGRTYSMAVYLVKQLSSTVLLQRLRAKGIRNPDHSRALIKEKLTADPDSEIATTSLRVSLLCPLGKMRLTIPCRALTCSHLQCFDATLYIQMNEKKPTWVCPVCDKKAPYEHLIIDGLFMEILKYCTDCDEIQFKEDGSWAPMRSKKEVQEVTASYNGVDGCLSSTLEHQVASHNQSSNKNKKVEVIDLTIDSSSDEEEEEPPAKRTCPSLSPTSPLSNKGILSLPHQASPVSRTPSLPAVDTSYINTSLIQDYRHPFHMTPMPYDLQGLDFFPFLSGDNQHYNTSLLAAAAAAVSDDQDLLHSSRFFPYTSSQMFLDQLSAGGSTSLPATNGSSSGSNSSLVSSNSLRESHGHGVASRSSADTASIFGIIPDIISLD

Experiment [2] concerns the target T2, FLAG-tagged necdin (full-length) (mouse) (UniProt P25233).
T2 sequence: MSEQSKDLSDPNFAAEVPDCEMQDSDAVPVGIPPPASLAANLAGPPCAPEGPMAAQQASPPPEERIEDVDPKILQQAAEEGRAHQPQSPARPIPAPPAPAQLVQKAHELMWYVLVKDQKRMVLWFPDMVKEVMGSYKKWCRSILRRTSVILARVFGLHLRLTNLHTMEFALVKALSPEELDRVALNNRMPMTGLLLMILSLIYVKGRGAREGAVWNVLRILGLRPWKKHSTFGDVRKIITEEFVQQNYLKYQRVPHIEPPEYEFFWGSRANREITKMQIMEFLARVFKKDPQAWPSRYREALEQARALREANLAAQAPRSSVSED
The experiment is described as above.

The target of experiment [3] is T3, FLAG-tagged necdin aa 101-325 (CT) (mouse) (UniProt P25233).
T3 sequence: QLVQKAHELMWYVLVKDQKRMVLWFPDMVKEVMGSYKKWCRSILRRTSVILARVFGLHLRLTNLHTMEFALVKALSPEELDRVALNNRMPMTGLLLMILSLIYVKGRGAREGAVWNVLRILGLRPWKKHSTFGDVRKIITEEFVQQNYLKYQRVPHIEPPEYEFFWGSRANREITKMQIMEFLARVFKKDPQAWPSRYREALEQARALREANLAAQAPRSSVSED
The experiment is described as follows: co-IP; HEK293A cells co-transfected with Myc-PIAS1 and FLAG-tagged necdin FL, CT or NT; precipitated proteins analysed with antibodies to Myc and FLAG.

For experiment [4], the target named is T4, FLAG-tagged necdin aa 1-100 (NT) (mouse) (UniProt P25233).
T4 sequence: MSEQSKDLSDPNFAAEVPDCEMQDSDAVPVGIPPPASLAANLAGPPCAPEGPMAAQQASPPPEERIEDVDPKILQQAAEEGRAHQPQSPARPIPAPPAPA
Described as above.

The target of experiment [5] is T2, FLAG-tagged necdin (full-length) (mouse). The experiment is described as above.

Results are given in words; binding and its absence hold for the method and conditions named. Binding seen in cells or lysates may run through a third protein. Some binding calls cover weakened binding; strength is not graded here. Tags and fused reporters may be left off the sequences shown.

In the case of “Myc-tagged PIAS1 (full-length) (from UniProt O88907 1-651) (enzyme)”, the binding entry in experiment [1] is “binds”; in experiment [2], “binds”; in experiment [3] it was “binds”; in experiment [4], “no binding”; in experiment [5] it was “binds”.

B1: Myc-tagged Cbx4 (enzyme, UniProt O55187-1 1-551)
chain: MELPAVGEHVFAVESIEKKRIRKGRVEYLVKWRGWSPKYNTWEPEENILDPRLLIAFQNRERQEQLMGYRKRGPKPKPLVVQVPTFARRSNVLTGLQDSSADNRAKLELGTQGKGQGHQYELNSKKHHQYQPHSKERSGKPPPPGKSGKYYYQLNSKKHHPYQPDPKMYDLQYQGGHKEAPSPTCPDLGTKSHPPDKWAHGAAAKGYLGAVKPLGGGAGAPGKGSEKGPPNGMTPAPKEAVTGNGIGGKMKIVKNKNKNGRIVIVMSKYMENGMQAVKIKSGEAAEGEARSPSHKKRAAEERHPQGDRTFKKAAGASEEKKAEVPCKRREEEALVSGDAQPQDLGSRKLSPTKEAFGEQPLQLTTKPDLLAWDPARSSHPPAHHHHHHHHHHHHHTVGLNLSHARKRCLSETHGEREPCKKRLTARSISTPTCLGGSPVSEHPANVSPTAASLPQPEVILLDSDLDEPIDLRCVKMRSDAGEPPSTLQVKPEAPAVAAVVAPAPASEKPPAEAQEEPVEPLSEFKPFFGNIIITDVTANCLTVTFKEYVTV
In the case of B1, the binding result in experiment [1] and in experiment [2] was “no binding” throughout.

B2: Myc-tagged Nsmce1 (enzyme, UniProt Q9D720 1-266)
chain: MQGSTRRAGAMTDVHRRFLQLLMTHGVLEEWEVRRLQNHCYQVHDRNATVDKLEDFINNINSVLESLYIEIKKGVTEDDGRPIYALVNLATTSVSKMATDFAENELDLFRKALELIVDSETGFASSTNILNLVDQLKGKKMRKKEAEQVLQKFVQSKWLIEKEGEFTLHGRAILEMEQFIRESYPDSVKMCNICHGLLIQGQSCETCGIRMHLPCVAKYFQSIPEPHCPHCNDYWPHDIPEVYNPEKEREAGISKSSRKSLRTRQH
In the case of B2, the binding entry in experiment [1] and in experiment [2] was “no binding” throughout.

B3: Myc-tagged Nsmce2 (enzyme, UniProt Q91VT1-1 1-247)
chain: MPGRSSTSSGSTRYISFSGIESALSSLKNFQSCISSGMDTVSSVALDLVETQTEVSSEYSMDKAMVEFAKMDRELSHYVKAVQSTINHVKEERPEKVPDLKLLVEKKFLALQDKNSDADFKENEKFVQFKQQLRELKKQYGIHADRENDLTEGVDEDMIVTQSQTNFICPITQLEMKKPVKNKMCGHTYEEEAIVRMIESKHKRKKKACCPKIGCSHTDMRMSDLIPDEALRRAIESHNKKKKRHSE
With B3, the binding result in experiment [1] and in experiment [2] was “no binding” throughout.

Source of the values: article PMC4049815.
